Test results from the supplement of paper PMC9135407.
Where “and” joins values, the source holds several entries; their conditions need not be identical. Equal entries are not always repeated. Structures can show the parent of a compound that is named as a salt. The whole screen tested about 5,800 compounds, of which about 620 (11%) showed activity.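 The calls were made as follows: active = score above a cut-off or among the top three wells of a plate; in these data no inactive exceeds 0.85.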 This is a selection; strong and weak results do not stand in their true shares.

Tested on: primary human hepatic stellate cells (donor 1)
Test: scaled lipid accumulation score (0 = DMSO-like, 1 = nortriptyline-like); higher = stronger HSC inactivation (lipid re-accumulation), active = hit call of the paper
Conditions: 48 h
[1] = library stock concentration: 10 mM
[2] = library stock concentration: 3.33 mM
[3] = library stock concentration: 6.2 mM
[4] = library stock concentration: 1 mM
[5] = library stock concentration: 80 uM
[6] = library stock concentration: 400 uM
[7] = library stock concentration: 2 mM

CC[N+](C)(CC)CCC[n+]1c(-c2ccccc2)c2cc(N)ccc2c2ccc(N)cc21 [Propidium iodide]
scaled lipid accumulation score: inactive: ≤ 0
scaled lipid accumulation score (library stock concentration: 7.5 mM): inactive: ≤ -0.012

O=C(c1ccc(F)cc1)C1CCN(CCn2c(=S)[nH]c3ccccc3c2=O)CC1 [Altanserin hydrochloride]
scaled lipid accumulation score [1]: inactive: 0.451

O=C(c1ccc(F)cc1)C1CCN(CCn2c(=S)[nH]c3ccccc3c2=O)CC1 [Altanserin]
scaled lipid accumulation score [1]: inactive: 0.491

O=C(O)Cn1nnc(-c2cc(N3CCC(Oc4cc(F)ccc4Br)CC3)no2)n1
scaled lipid accumulation score [2]: inactive: ≤ 0
scaled lipid accumulation score [1]: inactive: ≤ 0

OCCc1ccccc1 [Phenylethyl alcohol]
scaled lipid accumulation score (library stock concentration: 16.4 mM): inactive: ≤ 0

Clc1ccc(C(c2ccccc2Cl)C(Cl)Cl)cc1 (stereo not drawn) [Mitotane]
scaled lipid accumulation score [2]: inactive: ≤ 0
scaled lipid accumulation score [3]: inactive: 0.067
scaled lipid accumulation score [1]: inactive: 0.479 and inactive: 0.147

Clc1ccc(C(c2ccccc2Cl)C(Cl)Cl)cc1 (stereo not drawn) [1-(2-Chlorophenyl)-1-(4-chlorophenyl)-2,2-dichloroethane]
scaled lipid accumulation score [1]: inactive: 0.387

O=C1O[C@H]([C@@H](O)CO)C(O)=C1O [Vitamin C]
scaled lipid accumulation score [2]: inactive: 0.026
scaled lipid accumulation score [1]: inactive: ≤ 0

O=C1O[C@H]([C@@H](O)CO)C(O)=C1O [Ascorbic acid]
scaled lipid accumulation score: inactive: 0.027
scaled lipid accumulation score [1]: inactive: 0.006

Cc1cccc(C)c1OCC(=O)N[C@@H](Cc1ccccc1)[C@@H](O)C[C@H](Cc1ccccc1)NC(=O)[C@H](C(C)C)N1CCCNC1=O [Lopinavir]
scaled lipid accumulation score [2]: inactive: ≤ 0
scaled lipid accumulation score [1]: inactive: ≤ 0

CCn1c2ccccc2c2cc(CNC)ccc21.Cl
scaled lipid accumulation score [1]: active: 0.872

Cc1ccc(NC(=O)c2ccc(CN3CCN(C)CC3)cc2)cc1Nc1nc(-c2cccnc2)cs1 [Masitinib]
scaled lipid accumulation score [1]: active: 1.07

COc1cc(CNC(=O)CCCCCCC(C)C)ccc1O [Dihydrocapsaicin]
scaled lipid accumulation score [4]: inactive: 0.003
scaled lipid accumulation score [1]: inactive: 0.27

N#CC[C@H](C1CCCC1)n1cc(-c2ncnc3[nH]ccc23)cn1 [S-Ruxolitinib]
scaled lipid accumulation score [5]: inactive: 0.036
scaled lipid accumulation score [6]: inactive: ≤ 0
scaled lipid accumulation score [7]: inactive: 0.064
scaled lipid accumulation score [1]: inactive: ≤ 0

N#CC[C@H](C1CCCC1)n1cc(-c2ncnc3[nH]ccc23)cn1
scaled lipid accumulation score [5]: inactive: 0.03
scaled lipid accumulation score [6]: inactive: ≤ -0.009
scaled lipid accumulation score [7]: inactive: ≤ -0.009
scaled lipid accumulation score [2]: inactive: ≤ 0
scaled lipid accumulation score [1]: inactive: ≤ 0 and inactive: 0.092 and inactive: 0.075

O=[N+]([O-])c1ccc(O)c2ncccc12
scaled lipid accumulation score [1]: inactive: 0.08

CCCc1nn(C)c2c(=O)[nH]c(-c3cc(S(=O)(=O)N4CCN(C)CC4)ccc3OCC)nc12 [Sildenafil Citrate]
scaled lipid accumulation score [2]: inactive: 0.035
scaled lipid accumulation score [1]: inactive: ≤ 0

CCCc1nn(C)c2c(=O)[nH]c(-c3cc(S(=O)(=O)N4CCN(C)CC4)ccc3OCC)nc12 [Sildenafil]
scaled lipid accumulation score [1]: inactive: ≤ -0.027

CCCc1nn(C)c2c(=O)[nH]c(-c3cc(S(=O)(=O)N4CCN(C)CC4)ccc3OCC)nc12 [Sildenafil citrate salt]
scaled lipid accumulation score [1]: inactive: 0.592

NNC(=O)c1ccncc1.Nc1ccc(C(=O)O)c(O)c1 [Pasiniazid]
scaled lipid accumulation score [1]: inactive: ≤ -0.027

CN(C[C@@H]1COCCO1)S(=O)(=O)Nc1ccc2ccc3ncc(-c4cnn(C)c4)cc3c(=O)c2c1
scaled lipid accumulation score [2]: inactive: ≤ 0
scaled lipid accumulation score [1]: inactive: ≤ 0

CC(O)(CC(=O)O)CC(=O)O
scaled lipid accumulation score [1]: inactive: 0.023

C[C@@H]1CN(c2c(F)c(F)c3c(=O)c(C(=O)O)cn(C4CC4)c3c2F)C[C@H](C)N1
scaled lipid accumulation score [1]: inactive: ≤ 0

CCCCS(=N)(=O)CCC(N)C(=O)O [L-Buthionine-sulfoximine]
scaled lipid accumulation score [1]: inactive: 0.065

O=C(CSc1nc2c(c(=O)n1-c1ccccc1)SCC2)Nc1ccc(-c2ccccc2)cn1
scaled lipid accumulation score [2]: inactive: ≤ -0.009
scaled lipid accumulation score [1]: inactive: ≤ 0

COc1cccc(OC)c1OCCNCC1CSc2ccccc2O1 (stereo not drawn) [Benoxathian hydrochloride]
scaled lipid accumulation score [1]: inactive: 0.629

CCC(C)(C)C(=O)O[C@H]1C[C@@H](C)C=C2C=C[C@H](C)[C@H](CC[C@@H]3C[C@@H](O)CC(=O)O3)[C@H]21 [Simvastatin]
scaled lipid accumulation score: inactive: 0.214
scaled lipid accumulation score [2]: inactive: 0.271
scaled lipid accumulation score (library stock concentration: 4.8 mM): inactive: 0.213 and inactive: 0.218

CCOC(=O)CC(=O)N1CCSC1COc1ccccc1OC (stereo not drawn)
scaled lipid accumulation score [1]: inactive: ≤ 0

CCOC(=O)CC(=O)N1CCSC1COc1ccccc1OC (stereo not drawn) [Moguisteine]
scaled lipid accumulation score [2]: inactive: ≤ 0
scaled lipid accumulation score [1]: inactive: ≤ 0

CC(=O)Oc1ccc(C(c2ccc(OC(C)=O)cc2)c2ccccn2)cc1 [Bisacodyl]
scaled lipid accumulation score: inactive: 0.074
scaled lipid accumulation score [2]: inactive: ≤ 0
scaled lipid accumulation score [1]: inactive: ≤ -0.001 and inactive: ≤ 0

N=c1nc(N2CCCCC2)cc(N)n1O [Minoxidil]
scaled lipid accumulation score [1]: inactive: ≤ -0.055

CN(C)CCOc1ccc(C(=C(CCCl)c2ccccc2)c2ccccc2)cc1.O=C(O)CC(O)(CC(=O)O)C(=O)O [Toremifene Citrate]
scaled lipid accumulation score [1]: active: 1.23

CC(C)c1cnn2c(NCc3ccccc3)cc(NCCCCCCN)nc12
scaled lipid accumulation score [5]: inactive: ≤ -0.016
scaled lipid accumulation score [6]: inactive: ≤ -0.016
scaled lipid accumulation score [7]: inactive: ≤ -0.016
scaled lipid accumulation score [2]: inactive: ≤ 0
scaled lipid accumulation score [1]: inactive: ≤ 0 and inactive: ≤ -0.016

CCc1nn(CCCN2CCN(c3cccc(Cl)c3)CC2)c(=O)n1CCOc1ccccc1
scaled lipid accumulation score [1]: inactive: 0.568

CCc1nn(CCCN2CCN(c3cccc(Cl)c3)CC2)c(=O)n1CCOc1ccccc1 [Nefazodone hydrochloride]
scaled lipid accumulation score [1]: inactive: 0.343

CCc1nn(CCCN2CCN(c3cccc(Cl)c3)CC2)c(=O)n1CCOc1ccccc1 [Nefazodone]
scaled lipid accumulation score [1]: inactive: 0.241

NC1CONC1=O (racemic) [DL-Cycloserine]
scaled lipid accumulation score [1]: inactive: ≤ 0

CCCCC[C@H](O)/C=C/[C@H]1C(=O)C[C@H](O)[C@@H]1C/C=C\CCCC(=O)OC [Prostaglandin D2 methyl ester]
scaled lipid accumulation score [4]: inactive: ≤ 0

CNCCCCOc1ccccc1Cc1ccccc1.Cl [Bifemelane hydrochloride]
scaled lipid accumulation score [1]: active: 1.41

CCCNC(C)(C)COC(=O)c1ccccc1 [Meprylcaine hydrochloride]
scaled lipid accumulation score: inactive: ≤ 0

OC[C@H]1NC[C@@H](O)[C@@H]1O [1,4-Dideoxy-1,4-imino-D-arabinitol]
scaled lipid accumulation score [1]: inactive: ≤ -0.07

CC(C)[C@H](NC(=O)OCc1ccccc1)C(=O)N[C@H](C=O)Cc1ccccc1
scaled lipid accumulation score [1]: inactive: 0.085

c1cc(OCCN2CCCCC2)cc(-c2n[nH]c3ccc(-c4nnc[nH]4)cc23)c1
scaled lipid accumulation score [5]: inactive: ≤ -0.016
scaled lipid accumulation score [6]: inactive: ≤ -0.016 and inactive: ≤ -0.005
scaled lipid accumulation score [7]: inactive: ≤ -0.016 and inactive: 0.022

C[N+](C)(CCOc1ccccc1)Cc1ccccc1.O=C([O-])c1cc2ccccc2cc1O [Bephenium hydroxynaphthoate]
scaled lipid accumulation score: inactive: ≤ 0

Cc1nc2c([nH]1)c(=O)n(C)c(=O)n2Cc1ccco1 [Furafylline]
scaled lipid accumulation score (library stock concentration: 7.7 mM): inactive: ≤ -0.006
scaled lipid accumulation score [1]: inactive: ≤ -0.07

CCC(C)C1OC2(CCC1C)CC1CC(CC=C(C)C(OC3CC(OC)C(OC4CC(OC)C(O)C(C)O4)C(C)O3)C(C)C=CC=C3COC4C(O)C(C)=CC(C(=O)O1)C34O)O2 (stereo not drawn) [Ivermectin]
scaled lipid accumulation score [2]: inactive: 0.007
scaled lipid accumulation score [1]: inactive: 0.198

CC(NCCc1ccc(O)cc1)C(O)c1ccc(O)cc1 (stereo not drawn) [Ritodrine HCl]
scaled lipid accumulation score [2]: inactive: ≤ 0
scaled lipid accumulation score [1]: inactive: ≤ 0

CC(NCCc1ccc(O)cc1)C(O)c1ccc(O)cc1 (stereo not drawn) [Ritodrine hydrochloride]
scaled lipid accumulation score: inactive: ≤ 0
scaled lipid accumulation score [3]: inactive: ≤ 0
scaled lipid accumulation score [1]: inactive: ≤ 0

CC(C)(O)CC(=O)NCCn1ccc2ncnc(Nc3ccc(Oc4cccc(C(F)(F)F)c4)c(Cl)c3)c21
scaled lipid accumulation score [2]: inactive: ≤ 0
scaled lipid accumulation score [1]: inactive: 0.302

CC(=O)Nc1ccc(OC(C)=O)cc1
scaled lipid accumulation score [1]: inactive: ≤ 0

NC1CCN(c2c(F)cc3c(=O)c(C(=O)O)cn(C4CC4)c3c2Cl)C1 (stereo not drawn)
scaled lipid accumulation score [1]: inactive: ≤ 0

CCC1(C)CC(=O)NC1=O (stereo not drawn) [Ethosuximide]
scaled lipid accumulation score: inactive: ≤ 0
scaled lipid accumulation score [1]: inactive: ≤ -0.07 and inactive: ≤ 0
scaled lipid accumulation score (library stock concentration: 14.2 mM): inactive: ≤ 0

CCN1C(=O)C=CC1=O [N-Ethylmaleimide]
scaled lipid accumulation score [1]: inactive: 0.37

O=C(Nc1c[nH]nc1-c1nc2ccc(CN3CCOCC3)cc2[nH]1)NC1CC1
scaled lipid accumulation score [6]: active: 0.877

O=C(NC(Cc1cc(=O)[nH]c2ccccc12)C(=O)O)c1ccc(Cl)cc1 (stereo not drawn) [Rebamipide]
scaled lipid accumulation score [2]: inactive: ≤ 0
scaled lipid accumulation score (library stock concentration: 5.4 mM): inactive: ≤ 0
scaled lipid accumulation score [1]: inactive: ≤ 0 and inactive: 0.058

C[N+](C)(C)CCOC(N)=O [Carbachol]
scaled lipid accumulation score: inactive: ≤ 0
scaled lipid accumulation score [1]: inactive: ≤ 0 and inactive: 0.253
scaled lipid accumulation score (library stock concentration: 11 mM): inactive: ≤ -0.001

CC(C)c1cc(C(C)C)c(CC(=O)NS(=O)(=O)Oc2c(C(C)C)cccc2C(C)C)c(C(C)C)c1 [Avasimibe]
scaled lipid accumulation score [2]: inactive: ≤ 0
scaled lipid accumulation score [1]: inactive: ≤ 0

O=C(NNc1nc2cc(F)ccc2n2cccc12)c1cnccn1
scaled lipid accumulation score [2]: inactive: ≤ -0.009
scaled lipid accumulation score [1]: inactive: 0.466

CC(C)(C)NC[C@H](O)COc1cccc2c1CCCC2=O [Levobunolol hydrochloride]
scaled lipid accumulation score (library stock concentration: 6.1 mM): inactive: ≤ 0

CC(C)(C)NC[C@H](O)COc1cccc2c1CCCC2=O [(-) -Levobunolol hydrochloride]
scaled lipid accumulation score: inactive: ≤ 0

Nc1ncn(C2OC(CO)C(O)C2O)c(=O)n1 (stereo not drawn) [Azacytidine-5]
scaled lipid accumulation score: inactive: ≤ 0

COc1ccc(-c2oc3cc(OC)ccc3c2C(=O)c2ccc(C#N)cc2)cc1
scaled lipid accumulation score [1]: inactive: ≤ 0

COC(=O)/C=C/C(=O)OC [Dimethyl Fumarate]
scaled lipid accumulation score [2]: inactive: 0.015
scaled lipid accumulation score [1]: inactive: ≤ 0

COC(=O)/C=C/C(=O)OC
scaled lipid accumulation score [1]: inactive: ≤ 0
